Screen size: about 48,000 compounds; about 450 (0.94%) were called active. Not shown: some 19% with an inconclusive outcome. Calls come from the whole dose curve; as a rule, active = well fitted inhibition curve with a large enough effect; inconclusive = small, poorly fitted or top-dose-only effect; inactive = no such curve, though single readings can be large or run the other way. This is one part of the list.
Test: Primary qHTS for Identification of Small Molecule Inhibitors of Huntingtin Promoter Activity; note: nearly all actives have a fitted effect of over 50% in size
Settings: HEK293 HTT promoter firefly luciferase reporter (activity 0% = vehicle and -100% = no light), 24 h; series mostly up to 57.5 µM; activity change, negative = inhibition: at the top concentration
Method in brief: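 HEK293 cells carrying firefly luciferase reporters were seeded at 2,500 per well in Opti-MEM and cultured for 24 h. They were then treated with compounds at up to 57.5 uM final for 24 h at 37 degrees C before Dual-Glo luminescence readout.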

Row | SMILES | activity change, negative = inhibition
1 | CCN(C(=O)CSc1nc2ccccc2[nH]1)c1ccccc1 | inactive: -12.4%
2 | Cc1ccc(NC(=O)Cn2ccn(-c3ccccc3)c(=O)c2=O)cc1 | inactive: -5.69%
3 | Cc1ccc(Cn2cc(S(=O)(=O)c3cccc(Cl)c3)c(=O)c3cc(F)c(N4CCOCC4)cc32)cc1 | inactive: -7.23%
4 | CCOc1ccc(C2NC(=O)c3c(COC)cc(C)nc3N2Cc2ccccc2)cc1OC (stereo unspecified) | inactive: -5.16%
5 | Cc1ccc(C)c(N2CCN(C(=O)c3ccc4c(c3)N(Cc3ccc(F)cc3)C(=O)c3ccccc3S4=O)CC2)c1 (stereo unspecified) | inactive: -5.01%
6 | CC1CCC(Nc2nc3c(-c4cccc(C(F)(F)F)c4)nnn3c3ccccc23)CC1 (stereo unspecified) | inactive: -14.4%
7 | COc1cc(OC)c(NC(=O)CCc2c(C)nc3cc(-c4ccccc4OC)nn3c2C)cc1Cl | inactive: -32.1%
8 | CC(C)OC(=O)c1c(NC(=O)C2c3ccccc3Oc3ccccc32)sc2c1CCCC2 | inactive: -14.5%
9 | COc1ccccc1-c1noc(CCC(=O)Nc2ccc(C)cc2C)n1 | inactive: -11.4%
10 | Cc1ccc(NC(=O)C2CCCN(S(=O)(=O)c3cn(C(C)C)cn3)C2)c(C)c1 (stereo unspecified) | inactive: -17%
11 | CCc1ccc2oc(C(=O)Nc3cc(C)ccc3C)cc(=O)c2c1 | inactive: 5.73% [at 11.5 µM]
12 | CC(C)c1nn2c(=O)cc(COC(=O)c3ccccc3NC(=O)C3CCCCC3)nc2s1 | inactive: -19%
13 | CC1Cc2ccccc2N1C(=O)CSc1nnc(-c2ccccc2Cl)o1 (stereo unspecified) | inactive: -1.19%
14 | CN(C)c1ccc(CNC(=O)c2ccccc2NC(=O)c2nsc3ccccc23)cc1 | inactive: 21.1%
15 | CCCc1cc(=O)n2[nH]c(NCc3ccc(CC)cc3)nc2n1 | inactive: -21.1%
16 | O=C1SC(Nc2ccc(Cl)cc2)C(=O)N1Cc1ccccc1 (stereo unspecified) | inactive: -16.8%
17 | Cc1ccc2oc(C(=O)Nc3ccc(S(=O)(=O)Nc4onc(C)c4C)cc3)cc(=O)c2c1 | inactive: -6.22% [at 11.5 µM]
18 | O=C(CSc1ncc(S(=O)(=O)c2ccc(Cl)cc2)c(=O)[nH]1)Nc1ccc2c(c1)OCCO2 | inactive: -3.39%
19 | COc1cccc(C(=O)NCC(=O)OCc2cc(=O)n3nc(C)sc3n2)c1 | inactive: 10.9%
20 | CCCCNC(=O)C1=CC(c2ccc3c(c2)OCO3)=NS(=O)(=O)N1C | inactive: -11.9%
21 | CCCCCC(N)=O | inactive: 15.5%

Row | SMILES | activity change, negative = inhibition
22 | C[C@H]1C[C@H]2[C@@H]3CCC4=CC(=O)C=C[C@]4(C)[C@@]3(Cl)[C@@H](O)C[C@]2(C)[C@@]1(O)C(=O)CO | inactive: -9.39%
23 | CCC(Sc1nc2ccncc2[nH]1)C(=O)Nc1ccc(F)cc1 (stereo unspecified) | inactive: -34.3%
24 | COc1cccc(-n2c(=O)c3sc4ccccc4c3n(CC(=O)Nc3ccccc3OC)c2=O)c1 | inactive: -18.4%
25 | Cc1ccc(-n2nc(CO)c(C(=O)NCCc3ccccc3)n2)cc1 | inactive: -8.26%
26 | O=S(=O)(c1ccccc1)c1nnn2c1nc(Nc1ccccc1)c1cc(Cl)ccc12 | inactive: -15.2%
27 | Cc1ccc(Cl)cc1N1CCN(C(=O)Cn2ncc3c([nH]c4ccccc43)c2=O)CC1 | inactive: 7.6%
28 | Cc1cc(C)cc(NC(=O)C(NS(=O)(=O)c2cccc3nsnc23)c2ccccc2)c1 (stereo unspecified) | inactive: -29.7%
29 | O=C(CSc1nnc(-c2ccc(Cl)cc2)o1)N1CCc2ccccc21 | inactive: 2.93%
30 | Cc1ccc(Cn2cnc3c(oc4ccccc43)c2=O)cc1 | inactive: 25.4%
31 | COc1ccc(CCNC(=O)CCc2cn(Cc3ccc(C)cc3)c3ccccc23)cc1OC | inactive: -27.2%
32 | CCCCn1c2ccccc2c2nnc(SCC(=O)Nc3ccc(NC(C)=O)cc3)nc21 | inactive: -31.5%
33 | COc1cc2nc(N3CCN(C(=O)C4CCCO4)CC3)nc(N)c2cc1OC (stereo unspecified) | inactive
34 | O=C(Nc1onc2c1CCCC2)c1ccc(Cl)cc1 | inactive: 61.8%
35 | CCc1nc2nc(C)cc(Nc3ccc(Br)cc3F)n2n1 | inactive: -15.4%
36 | Cc1ccccc1NC(=O)c1c2c(nc3ccccc13)C(=O)N(C1CCCCC1)C2 | inactive: -4.77%
37 | COc1ccccc1-c1cc(C(F)(F)F)nc(S(=O)(=O)CCCC(=O)Nc2cc(C)ccc2O)n1 | inactive: 33.7%
38 | Cc1ccc2c(=O)c(C(=O)c3ccc(F)cc3)cn(CC(=O)NC3CCCCC3)c2n1 | inactive: 6.09%
39 | CC(=O)Nc1ccc(S(=O)(=O)Nc2ccc(-c3cn4c(C)csc4n3)cc2)cc1 | inactive: -35.4%
40 | COc1ccc2c(Sc3ccccc3)c(C(=O)NCc3ccc(OC(C)C)cc3)[nH]c2c1 | inactive: -9.57%
41 | CN1CCN(c2cccc(Nc3nc4c(-c5ccc(S(C)(=O)=O)cc5)cccn4n3)c2)CC1 | inactive: 2.12%
42 | COc1ccc(-c2nc3ccc(NS(=O)(=O)c4ccccc4)cc3o2)cc1 | inactive: -5.45%

Row | SMILES | activity change, negative = inhibition
43 | CCOc1ccc(-n2c(SCC(=O)NCc3ccco3)nc3c([nH]c4ccccc43)c2=O)cc1 | inactive: -27%
44 | Cc1ccc(-n2c3nc(=O)[nH]c(=O)c-3cc3c(Cl)cccc32)cc1 | inactive: 3.43%
45 | Cc1ccc(NC(=O)c2sc(-n3nc(C)c(Cc4ccc(Cl)cc4)c3C)nc2C)cc1 | inactive: 5.61%
46 | Cc1ccc(Cn2ccnc2SCC(=O)Nc2ccc3c(c2)OCO3)cc1 | inactive: -8.78%
47 | CCN(Cc1ccccc1)C(=O)Cn1c(=O)n(-c2ccc(OC)cc2OC)c(=O)c2c(C)c(C)sc21 | inactive: -2.61%
48 | CCOc1ccc(NC(=O)c2c(NC(=O)Cc3ccccc3)sc3c2CCCC3)cc1 | inactive: -16.1%
49 | COc1ccc(Cl)cc1NC(=O)Cn1c(=O)n(Cc2ccco2)c(=O)c2ccc(C(=O)NC3CCCC3)cc21 | inactive: -13.2%
50 | CCOc1ccc(CNC(=O)c2ccc(-c3nc(CSc4ccc(C)cc4)c(C)o3)cc2)cc1 | inactive: -25.2%
51 | Cc1c(CC(=O)N2CCCCC2)c(=O)oc2c(C)c3occ(C(C)(C)C)c3cc12 | inactive: -6.12%
52 | CCCCOc1ccc(C(C)NC(=O)c2cccc(Nc3nc4ccccc4n4nnnc34)c2)cc1 (stereo unspecified) | inactive: -4.22%
53 | CCOc1ccc(CCNC(=O)CSc2n[nH]c(-c3ccccc3)n2)cc1OCC | inactive: 1.48%
54 | Cc1ccc(CN2CCSc3ccc(C(=O)NCCc4ccccc4)cc32)cc1 | inactive: 14.1%
55 | COc1ccc(Cl)cc1NC(=O)C1CCN(c2nnc(C)c3c(C)n(-c4ccccc4)nc23)CC1 | inactive: -10.3%
56 | CN(C)C=NC(=O)c1cc2c(n(-c3ccccc3)c1=O)CC(C)(C)CC2=O | inactive: -17.5%
57 | Oc1ccccc1C=NCc1ccccc1 | inactive: -0.469%
58 | COc1cccc(CSc2nc3n(n2)C(c2cccc(F)c2)C(C(=O)Nc2ccccc2C)=C(C)N3)c1 (stereo unspecified) | inactive: 6.13%
59 | CN(C)c1cc2c(cc1NS(=O)(=O)c1ccccc1)n(C)c(=O)n2C | inactive: -9.51%
60 | COc1ccc(CN(C(=O)Nc2cccc(Cl)c2)c2ccccn2)cc1OC | inactive: -8.26%
61 | COCCNC(=O)CCC(=O)N1Cc2cccc(OC)c2Oc2ncccc21 | inactive: -12.7%

— PubChem BioAssay AID1508623 (National Center for Advancing Translational Sciences (NCATS), 2021)
